The results in this text go back to patent US8106205B2, “N[S(4-aryl-triazol-3-yl)α-mercaptoacetyl]p-amino benzoic acids as HIV reverse transcriptase inhibitors” (priority 2004, dated 2012).

By pEC50 is commonly meant the negative decadic logarithm of the EC50, by convention in mol/L. As a reminder, the EC50 is the concentration at which the effect is half-maximal. One may read the pIC50 as −log10 of the IC50, conventionally taken in molar units.

pEC50, pIC50: −log10 of the molar value.

One assay concerns Y181C mutant HIV. Nature of the assay: microbe, parasite or virus in culture. The settings on record: Human immunodeficiency virus 1, read-out: EC50 Y181C. An excerpt:
(§1) With respect to suitable concentrations of contemplated compounds in pharmaceutical compositions, it should be appreciated that a person of ordinary skill in the art can readily adjust the amount of the compound to achieve inhibition of the reverse transcriptase and/or HIV replication. […] Alternatively, inhibition of the reverse transcriptase may be monitored in vivo using RT-PCR to determine the amount of copies of viral DNA and/or RNA in blood or lymph nodes (containing HIV infected cells). It is generally contemplated that suitable concentrations will achieve a serum concentration of between 1 nM and 100 uM, and in some cases between 0.01 nM and 1 nM).
(§2) Compounds of the invention were tested against the wild-type and four mutant HIV reverse transcriptases. The results are listed in Table 1 and Table 2 as EC50 (nM) and IC50 (nM). In Tables 1 and 2, A represents <50 nM, B is between 50 and 100 nM, and C is >100 nM. ND is not determined.
As for `Cc1cc(C)c(-n2c(SCC(=O)Nc3ccc(S(N)(=O)=O)cc3Cl)nnc2C(F)(F)F)c2c1CCCC2` [Compound 54], the pEC50 is over 7.30.

With `Cc1cc(C2CC2)cc(Cl)c1-n1c(Br)nnc1SCC(=O)Nc1ccc(S(N)(=O)=O)cc1Cl` [Compound 70], the pEC50 was over 7.30.

Take `NS(=O)(=O)c1ccc(NC(=O)CSc2nnc(Br)n2-c2ccc(C3CC3)cc2)c(Cl)c1` [Compound 46]: the pEC50 was over 7.30.

Consider `CC(Sc1nnc(Br)n1-c1ccc(C2CC2)c2ccccc12)C(=O)Nc1ccc(S(N)(=O)=O)cc1Cl` (stereo not shown) [Compound 44], for which the pEC50 was 7.00 to 7.30.

For the molecule `Cc1cc(S(N)(=O)=O)ccc1NC(=O)CSc1nnc(Br)n1-c1ccc(C2CCC2)c2ccccc12` [Compound 72], the pEC50 is over 7.30.

`COCCC(=O)NS(=O)(=O)c1ccc(NC(=O)CSc2nnc(Br)n2-c2ccc(C3CC3)c3ccccc23)c(Cl)c1` [Compound 67]: the pEC50 is over 7.30.

`NS(=O)(=O)c1ccc(NC(=O)CSc2nnc(Br)n2-c2ccc(C3CC3)cc2OC(F)(F)F)c(Cl)c1` [Compound 66]: the pEC50 was over 7.30.

Take `CCCC(=O)NS(=O)(=O)c1ccc(NC(=O)CSc2nnc(Br)n2-c2ccc(C3CC3)c3ccccc23)c(Cl)c1` [Compound 58]: the pEC50 is over 7.30.

For the molecule `N#Cc1cccc2c(-n3c(SCC(=O)Nc4ccc(S(N)(=O)=O)cc4Cl)nnc3C(F)F)cccc12` [Compound 76], the pEC50 was over 7.30.

The assay is the same for the next values; noted with them: Human immunodeficiency virus 1, read-out: EC50 Y181C (nM).
As for `Cc1cc(C2CC2)cc(Cl)c1-n1c(Br)nnc1SCC(=O)Nc1ccc(C(=O)O)cc1Cl` [Compound 20], the EC50 is under 50 nM.

Regarding `COc1ccc2c(C)ccc(-n3c(Br)nnc3SCC(=O)Nc3ccc(C(=O)O)cc3Cl)c2c1` [Compound 15], the EC50 was under 50 nM.

The assay is the same for the next values; noted with them: Table 2, Y181C mutant; read-out: EC50 Y181C.
Turning to `O=C(O)CCC(=O)NS(=O)(=O)c1ccc(NC(=O)CSc2nnc(Br)n2-c2ccc(C3CC3)c3ccccc23)c(Cl)c1` [Compound 71], the pEC50 was under 7.00.

Consider `N[C@@H](CC(=O)NS(=O)(=O)c1ccc(NC(=O)CSc2nnc(Br)n2-c2ccc(C3CC3)c3ccccc23)c(Cl)c1)C(=O)O` [Compound 63], for which the pEC50 is over 7.30.

In the case of `Cc1cc(C2CC2)ccc1-n1c(Br)nnc1SCC(=O)Nc1ccc(S(N)(=O)=O)cc1Cl` [Compound 61], the pEC50 was over 7.30.

With `NCCC[C@@H](N)C(=O)NS(=O)(=O)c1ccc(NC(=O)CSc2nnc(Br)n2-c2ccc(C3CC3)c3ccccc23)c(Cl)c1` [Compound 60], the pEC50 was over 7.30.

For the molecule `NS(=O)(=O)c1ccc(NC(=O)CSc2nnc(Br)n2-c2ccc(C3CC3)c3ccccc23)c(Cl)c1` [Compound 45], the pEC50 was 7.00 to 7.30.

A further assay deals with Y188L mutant HIV. Nature of the assay: microbe, parasite or virus in culture. The settings on record: Human immunodeficiency virus 1, read-out: EC50 Y188L.
Source text: as §1, §2
Turning to `Cc1cc(C)c(-n2c(SCC(=O)Nc3ccc(S(N)(=O)=O)cc3Cl)nnc2C(F)(F)F)c2c1CCCC2` [Compound 54], the pEC50 was over 7.30.

On to `Cc1cc(C2CC2)cc(Cl)c1-n1c(Br)nnc1SCC(=O)Nc1ccc(S(N)(=O)=O)cc1Cl` [Compound 70], for which the pEC50 is over 7.30.

Regarding `NS(=O)(=O)c1ccc(NC(=O)CSc2nnc(Br)n2-c2ccc(C3CC3)cc2)c(Cl)c1` [Compound 46], the pEC50 is under 7.00.

For the molecule `CC(Sc1nnc(Br)n1-c1ccc(C2CC2)c2ccccc12)C(=O)Nc1ccc(S(N)(=O)=O)cc1Cl` (stereo not shown) [Compound 44], the pEC50 was under 7.00.

On to `Cc1cc(S(N)(=O)=O)ccc1NC(=O)CSc1nnc(Br)n1-c1ccc(C2CCC2)c2ccccc12` [Compound 72], for which the pEC50 is over 7.30.

As for `COCCC(=O)NS(=O)(=O)c1ccc(NC(=O)CSc2nnc(Br)n2-c2ccc(C3CC3)c3ccccc23)c(Cl)c1` [Compound 67], the pEC50 is under 7.00.

On to `NS(=O)(=O)c1ccc(NC(=O)CSc2nnc(Br)n2-c2ccc(C3CC3)cc2OC(F)(F)F)c(Cl)c1` [Compound 66], for which the pEC50 is 7.00 to 7.30.

On to `CCCC(=O)NS(=O)(=O)c1ccc(NC(=O)CSc2nnc(Br)n2-c2ccc(C3CC3)c3ccccc23)c(Cl)c1` [Compound 58], for which the pEC50 was over 7.30.

Regarding `N#Cc1cccc2c(-n3c(SCC(=O)Nc4ccc(S(N)(=O)=O)cc4Cl)nnc3C(F)F)cccc12` [Compound 76], the pEC50 is under 7.00.

The assay is the same for the next values; noted with them: Human immunodeficiency virus 1, read-out: EC50 Y188L (nM).
For `Cc1cc(C2CC2)cc(Cl)c1-n1c(Br)nnc1SCC(=O)Nc1ccc(C(=O)O)cc1Cl` [Compound 20], the EC50 was under 50 nM.

Regarding `COc1ccc2c(C)ccc(-n3c(Br)nnc3SCC(=O)Nc3ccc(C(=O)O)cc3Cl)c2c1` [Compound 15], the EC50 was under 50 nM.

The assay is the same for the next values; noted with them: Table 2, Y188L mutant; read-out: EC50 Y188L.
`O=C(O)CCC(=O)NS(=O)(=O)c1ccc(NC(=O)CSc2nnc(Br)n2-c2ccc(C3CC3)c3ccccc23)c(Cl)c1` [Compound 71]: the pEC50 was under 7.00.

Take `N[C@@H](CC(=O)NS(=O)(=O)c1ccc(NC(=O)CSc2nnc(Br)n2-c2ccc(C3CC3)c3ccccc23)c(Cl)c1)C(=O)O` [Compound 63]: the pEC50 is 7.00 to 7.30.

On to `Cc1cc(C2CC2)ccc1-n1c(Br)nnc1SCC(=O)Nc1ccc(S(N)(=O)=O)cc1Cl` [Compound 61], for which the pEC50 was over 7.30.

Take `NCCC[C@@H](N)C(=O)NS(=O)(=O)c1ccc(NC(=O)CSc2nnc(Br)n2-c2ccc(C3CC3)c3ccccc23)c(Cl)c1` [Compound 60]: the pEC50 was over 7.30.

For `NS(=O)(=O)c1ccc(NC(=O)CSc2nnc(Br)n2-c2ccc(C3CC3)c3ccccc23)c(Cl)c1` [Compound 45], the pEC50 was under 7.00.

The next assay has as its target T1, Y181C RT (Human immunodeficiency virus type 1 group M subtype B, UniProt P04585, Y768C).
T1 construct: tested against the wild-type and four mutant HIV reverse transcriptases
Nature of the assay: biochemical.
Settings: not given
Set-up: species or system HIV. As to the method:
as §2
For the molecule `Cc1cc(C)c(-n2c(SCC(=O)Nc3ccc(S(N)(=O)=O)cc3Cl)nnc2C(F)(F)F)c2c1CCCC2` [Compound 54], the pIC50 was under 7.00.

The molecule `Cc1cc(C2CC2)cc(Cl)c1-n1c(Br)nnc1SCC(=O)Nc1ccc(S(N)(=O)=O)cc1Cl` [Compound 70] showed a pIC50 of over 7.30.

In turn, `Cc1cc(C2CC2)cc(Cl)c1-n1c(Br)nnc1SCC(=O)Nc1ccc(C(=O)O)cc1Cl` [Compound 20] had a pIC50 of over 7.30.

`NS(=O)(=O)c1ccc(NC(=O)CSc2nnc(Br)n2-c2ccc(C3CC3)cc2)c(Cl)c1` [Compound 46] gave a pIC50 of over 7.30.

With `CC(Sc1nnc(Br)n1-c1ccc(C2CC2)c2ccccc12)C(=O)Nc1ccc(S(N)(=O)=O)cc1Cl` (stereo not shown) [Compound 44], the pIC50 is 7.00 to 7.30.

As for `Cc1cc(S(N)(=O)=O)ccc1NC(=O)CSc1nnc(Br)n1-c1ccc(C2CCC2)c2ccccc12` [Compound 72], the pIC50 was over 7.30.

Molecule `COCCC(=O)NS(=O)(=O)c1ccc(NC(=O)CSc2nnc(Br)n2-c2ccc(C3CC3)c3ccccc23)c(Cl)c1` [Compound 67] gave a pIC50 of over 7.30.

`COc1ccc2c(C)ccc(-n3c(Br)nnc3SCC(=O)Nc3ccc(C(=O)O)cc3Cl)c2c1` [Compound 15] had a pIC50 of over 7.30.

In the case of `NS(=O)(=O)c1ccc(NC(=O)CSc2nnc(Br)n2-c2ccc(C3CC3)cc2OC(F)(F)F)c(Cl)c1` [Compound 66], the pIC50 was over 7.30.

The molecule `CCCC(=O)NS(=O)(=O)c1ccc(NC(=O)CSc2nnc(Br)n2-c2ccc(C3CC3)c3ccccc23)c(Cl)c1` [Compound 58] gave a pIC50 of over 7.30.

As for `N#Cc1cccc2c(-n3c(SCC(=O)Nc4ccc(S(N)(=O)=O)cc4Cl)nnc3C(F)F)cccc12` [Compound 76], the pIC50 is under 7.00.

Still in this assay, the particulars now being: Table 2, Y181C RT; read-out: IC50 Y181C RT.
With `O=C(O)CCC(=O)NS(=O)(=O)c1ccc(NC(=O)CSc2nnc(Br)n2-c2ccc(C3CC3)c3ccccc23)c(Cl)c1` [Compound 71], the pIC50 was over 7.30.

`N[C@@H](CC(=O)NS(=O)(=O)c1ccc(NC(=O)CSc2nnc(Br)n2-c2ccc(C3CC3)c3ccccc23)c(Cl)c1)C(=O)O` [Compound 63]: the pIC50 is over 7.30.

Regarding `Cc1cc(C2CC2)ccc1-n1c(Br)nnc1SCC(=O)Nc1ccc(S(N)(=O)=O)cc1Cl` [Compound 61], the pIC50 is over 7.30.

Regarding `NCCC[C@@H](N)C(=O)NS(=O)(=O)c1ccc(NC(=O)CSc2nnc(Br)n2-c2ccc(C3CC3)c3ccccc23)c(Cl)c1` [Compound 60], the pIC50 was over 7.30.

For `NS(=O)(=O)c1ccc(NC(=O)CSc2nnc(Br)n2-c2ccc(C3CC3)c3ccccc23)c(Cl)c1` [Compound 45], the pIC50 is 7.00 to 7.30.

Another assay addresses T2, Y188L RT (Human immunodeficiency virus type 1 group M subtype B, UniProt P04585, Y775L).
T2 construct: tested against the wild-type and four mutant HIV reverse transcriptases
The experiment in a line: biochemical. Set-up: species or system HIV.
Settings: not given
As to the method:
as §2
Regarding `Cc1cc(C)c(-n2c(SCC(=O)Nc3ccc(S(N)(=O)=O)cc3Cl)nnc2C(F)(F)F)c2c1CCCC2` [Compound 54], the pIC50 was under 7.00.

`Cc1cc(C2CC2)cc(Cl)c1-n1c(Br)nnc1SCC(=O)Nc1ccc(S(N)(=O)=O)cc1Cl` [Compound 70]: the pIC50 is under 7.00.

`Cc1cc(C2CC2)cc(Cl)c1-n1c(Br)nnc1SCC(=O)Nc1ccc(C(=O)O)cc1Cl` [Compound 20] had a pIC50 of under 7.00.

`NS(=O)(=O)c1ccc(NC(=O)CSc2nnc(Br)n2-c2ccc(C3CC3)cc2)c(Cl)c1` [Compound 46] had a pIC50 of under 7.00.

For `CC(Sc1nnc(Br)n1-c1ccc(C2CC2)c2ccccc12)C(=O)Nc1ccc(S(N)(=O)=O)cc1Cl` (stereo not shown) [Compound 44], the pIC50 was under 7.00.

For `Cc1cc(S(N)(=O)=O)ccc1NC(=O)CSc1nnc(Br)n1-c1ccc(C2CCC2)c2ccccc12` [Compound 72], the pIC50 was under 7.00.

`COCCC(=O)NS(=O)(=O)c1ccc(NC(=O)CSc2nnc(Br)n2-c2ccc(C3CC3)c3ccccc23)c(Cl)c1` [Compound 67] gave a pIC50 of under 7.00.

As for `COc1ccc2c(C)ccc(-n3c(Br)nnc3SCC(=O)Nc3ccc(C(=O)O)cc3Cl)c2c1` [Compound 15], the pIC50 was over 7.30.

For `NS(=O)(=O)c1ccc(NC(=O)CSc2nnc(Br)n2-c2ccc(C3CC3)cc2OC(F)(F)F)c(Cl)c1` [Compound 66], the pIC50 is under 7.00.

The molecule `CCCC(=O)NS(=O)(=O)c1ccc(NC(=O)CSc2nnc(Br)n2-c2ccc(C3CC3)c3ccccc23)c(Cl)c1` [Compound 58] gave a pIC50 of under 7.00.

The molecule `N#Cc1cccc2c(-n3c(SCC(=O)Nc4ccc(S(N)(=O)=O)cc4Cl)nnc3C(F)F)cccc12` [Compound 76] showed a pIC50 of under 7.00.

The assay is the same for the next values; noted with them: Table 2, Y188L RT; read-out: IC50 Y188L RT.
For `O=C(O)CCC(=O)NS(=O)(=O)c1ccc(NC(=O)CSc2nnc(Br)n2-c2ccc(C3CC3)c3ccccc23)c(Cl)c1` [Compound 71], the pIC50 was under 7.00.

As for `N[C@@H](CC(=O)NS(=O)(=O)c1ccc(NC(=O)CSc2nnc(Br)n2-c2ccc(C3CC3)c3ccccc23)c(Cl)c1)C(=O)O` [Compound 63], the pIC50 was under 7.00.

With `Cc1cc(C2CC2)ccc1-n1c(Br)nnc1SCC(=O)Nc1ccc(S(N)(=O)=O)cc1Cl` [Compound 61], the pIC50 is under 7.00.

Take `NCCC[C@@H](N)C(=O)NS(=O)(=O)c1ccc(NC(=O)CSc2nnc(Br)n2-c2ccc(C3CC3)c3ccccc23)c(Cl)c1` [Compound 60]: the pIC50 was under 7.00.

With `NS(=O)(=O)c1ccc(NC(=O)CSc2nnc(Br)n2-c2ccc(C3CC3)c3ccccc23)c(Cl)c1` [Compound 45], the pIC50 is under 7.00.
